Experimental data published in the supplement of paper PMC11348887.
Where a name gives a salt, the structure may show the parent alone. Some of the results follow. Cut-off read from the data, not from the text of the source: active = -2 or less and inactive = the rest. Many values rest on one well or one pass, so single values are uncertain.

system: hPSC-derived cortical neurons (WA09); assay: nuclei number (viability) z-score; higher = more surviving cells; settings: 5 µM; treatment: days 7-14 after plating, readout day 21
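Note: nuclei counted from DAPI counterstain by automated high-content image analysis, four fields per well at ×20 in 384-well plates, with sequential b-score then z-score normalization.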

Structure (SMILES) | nuclei number (z-score)
CC1(COc2ccc3c(c2)ncn3-c2ccc3cccc(N4CCC(N)CC4)c3n2)COC1 | inactive: -0.718
COc1ccccc1-c1cc(Nc2cccc(CS(N)(=O)=O)c2)ncn1 | inactive: 0.608
CNCC[C@H](Oc1cccc2ccccc12)c1cccs1 [Duloxetine HCl] | inactive: -0.433
COc1ccc(S(=O)(=O)Nc2nc(-c3cccc([N+](=O)[O-])c3)cs2)cc1OC | inactive: 0.114
C[C@@H](Oc1cc(-n2cnc3ccc(CN4CCN(C)CC4)cc32)sc1C(N)=O)c1ccccc1C(F)(F)F | inactive: -0.972
COc1cc2c(cc1OC)C(=O)C(CC1CCN(Cc3ccccc3)CC1)C2 (centres undefined) [Donepezil HCl] | inactive: -0.593
OC[C@@H](O)[C@H](O)[C@@H](O)CO [Xylitol] | inactive: 0.488
COc1ccc([C@H]2CNC(=O)C2)cc1OC1CCCC1 [S- (+)-Rolipram] | inactive: 0.907
CN(C(=O)c1ccc(F)cc1C(F)(F)F)C1CCN(c2nnc(-c3ccnn3C)c3ccccc23)CC1 | inactive: -0.88
COc1cc2c(cc1OC)CN(CCc1ccc(NC(=O)c3cc(OC)c(OC)cc3NC(=O)c3cnc4ccccc4c3)cc1)CC2 [Tariquidar] | inactive: -1.29
COc1cc(Cc2cnc(N)nc2N)cc(OC)c1OC [Trimethoprim] | inactive: -0.79
CCCCOC(=O)c1ccc(N)cc1 [Butamben] | inactive: -0.144
CCCCC1=NC2(CCCC2)C(=O)N1Cc1ccc(-c2ccccc2-c2nnn[nH]2)cc1 [Irbesartan] | inactive: 0.192
CN(C)CC[C@H](CSc1ccccc1)Nc1ccc(S(=O)(=O)NC(=O)c2ccc(N3CCN(Cc4ccccc4-c4ccc(Cl)cc4)CC3)cc2)cc1[N+](=O)[O-] | active: -4.18
NC(=O)Cc1cccc(C(=O)c2ccccc2)c1N [Nepafenac] | inactive: 1.84
C[C@H]1COC2=C1C(=O)C(=O)c1c2ccc2c1CCCC2(C)C [Cryptotanshinone] | inactive: 1.89
CC[C@H]1OC(=O)[C@H](C)[C@@H](O[C@H]2C[C@@](C)(OC)[C@@H](O)[C@H](C)O2)[C@H](C)[C@@H](O[C@@H]2O[C@H](C)C[C@H](N(C)C)[C@H]2O)[C@](C)(OC)C[C@@H](C)C(=O)[C@H](C)[C@@H](O)[C@]1(C)O [Clarithromycin] | inactive: 0.413
O=[N+]([O-])c1ccc2c(c1)S(=O)(=O)C=C2 [Stattic] | inactive: -1.74
CCCCCCCCC/C(=C\C1=C(C)C(=O)C(OC)=C(OC)C1=O)C(=O)O | inactive: 0.725
CCCCOc1c(C(=O)c2c(F)cc(C)cc2F)c[nH]c2nncc1-2 | inactive: 4.05
Nc1ccccc1NC(=O)c1ccc(CNC(=O)OCc2cccnc2)cc1 [Entinostat (MS-275)] | active: -3.21
CCCC[S+]([O-])c1sc2nc(-c3cccs3)cc(-c3ccccc3)c2c1N (centres undefined) | inactive: 0.12
N=C(N)NC(=O)c1nc(Cl)c(N)nc1N [Amiloride HCl dihydrate] | inactive: 0.307

Structure (SMILES) | nuclei number (z-score)
N=C(N)NC(=O)c1nc(Cl)c(N)nc1N [Amiloride HCl] | inactive: 0.502
CC(C)C[C@@H]1NC(=O)[C@@H](C(C)C)NC(=O)[C@@H]2CCCN2C(=O)[C@@H](CC(=O)O)NC(=O)[C@@H](Cc2c[nH]c3ccccc23)NC1=O | inactive: 0.485
CN(C)C(=O)COC(=O)Cc1ccc(OC(=O)c2ccc(NC(=N)N)cc2)cc1 [Camostat Mesilate] | inactive: 0.0476
CCOc1cc([C@@H](CS(C)(=O)=O)N2C(=O)c3cccc(NC(C)=O)c3C2=O)ccc1OC | inactive: 0.646
NS(=O)(=O)c1cc(C(=O)O)c(NCc2ccco2)cc1Cl [Furosemide] | inactive: 0.0728
O=C(O)c1cc(=O)c2ccccc2o1 [Chromocarb] | inactive: -0.116
CCc1cncnc1N1CCN(Cc2nc3ccc(C(F)(F)F)cc3[nH]2)CC1 | inactive: -0.331
COc1cc(C(=O)NS(=O)(=O)c2ccccc2C)ccc1Cc1cn(C)c2ccc(NC(=O)OC3CCCC3)cc12 [Zafirlukast] | inactive: -0.352
CN[C@H]1CN(c2ccc3c(=O)c(C(=O)O)cn(-c4nccs4)c3n2)C[C@@H]1OC [Voreloxin (SNS-595)] | active: -4.56
CC1=C(C(=O)OC(C)C)C(c2cccc([N+](=O)[O-])c2)C(C(=O)OC2CN(C(c3ccccc3)c3ccccc3)C2)=C(N)N1 (centres undefined) [Azelnidipine] | active: -2.63
Cc1cc(C2CCCCC2)n(O)c(=O)c1 [Ciclopirox] | active: -9.28
Cc1cc(C2CCCCC2)n(O)c(=O)c1 [Ciclopirox ethanolamine] | active: -6.45
CN[C@H](CC(C)C)C(=O)N[C@H]1C(=O)N[C@@H](CC(N)=O)C(=O)N[C@H]2C(=O)N[C@H]3C(=O)N[C@H](C(=O)N[C@H](C(=O)O)c4cc(O)cc(O)c4-c4cc3ccc4O)[C@H](O)c3ccc(c(Cl)c3)Oc3cc2cc(c3O[C@@H]2O[C@H](CO)[C@@H](O)[C@H](O)[C@H]2O[C@H]2C[C@](C)(N)[C@H](O)[C@H](C)O2)Oc2ccc(cc2Cl)[C@H]1O [Vancomycin HCl] | inactive: -0.359
CNS(=O)(=O)Cc1ccc2[nH]cc(CCN(C)C)c2c1 [Sumatriptan Succinate] | inactive: -0.0464
O=c1c(O)c(-c2ccc(O)c(O)c2)oc2cc(O)ccc12 [Fisetin] | inactive: 0.0281
O=C(COc1ccc(Cl)cc1)NC1CCC(NC(=O)COc2ccc(Cl)cc2)CC1 (stereo not drawn) [ISRIB (trans-isomer)] | inactive: -0.585
COc1cc2ncnc(Oc3cccc(NC(=O)Nc4cc(C(C)(C)C(F)(F)F)on4)c3)c2cc1OC | inactive: 1.21
NS(=O)(=O)c1cc2c(cc1Cl)N=CNS2(=O)=O [Chlorothiazide] | inactive: -0.0531
COc1ccc(-c2cnc3c(-c4cccc5ncccc45)cnn3c2)cc1 | inactive: -0.0755
NCC(=O)Nc1ccc(-n2nc(C(F)(F)F)cc2-c2ccc3c(ccc4ccccc43)c2)cc1 | active: -2.63
COc1ccc(-c2nc3cc(C4=NNC(=O)CC4C)ccc3[nH]2)cc1 (centres undefined) [Pimobendan] | inactive: 0.292
Cc1ccc(S(=O)(=O)n2c(N)nc3ccccc32)cc1 [ML130 (Nodinitib-1)] | inactive: -0.32
O=C(NCc1ccncc1)C12CC3CC(C1)CC(c1ccc(Cl)cc1)(C3)C2 | inactive: 4

Structure (SMILES) | nuclei number (z-score)
CCOC(=O)[C@H](CCc1ccccc1)N[C@@H](C)C(=O)N1[C@H](C(=O)O)C[C@@H]2CCC[C@@H]21 [Ramipril] | inactive: -0.956
NC(=O)c1ncn([C@@H]2O[C@H](CO)[C@@H](O)[C@H]2O)n1 [Ribavirin] | inactive: 0.17
Cc1cc(Nc2ncc(Cl)c(Nc3ccccc3S(=O)(=O)C(C)C)n2)c(OC(C)C)cc1C1CCNCC1 | active: -5.22
O=C(O)Cc1cc(I)c(Oc2ccc(O)c(I)c2)c(I)c1 [Tiratricol] | inactive: 0.93
COCCCOc1ccnc(C[S+]([O-])c2nc3ccccc3[nH]2)c1C (centres undefined) [Rebeprazole sodium] | inactive: 5.28
CCC(CC)(NC(=O)C(C)C)C(=O)N[C@@H](CCCN=C(N)N)C(=O)NC1(C(=O)NC(c2ccc(F)cc2)c2ccc(F)cc2)CCCC1 | inactive: 2.02
Nc1ncc(-c2ccnc(Nc3ccncc3)n2)c(CC2CC2)n1 | inactive: -1.9
C[C@@H](Oc1cc(-c2cnn(C3CCNCC3)c2)cnc1N)c1c(Cl)ccc(F)c1Cl | inactive: 0.303
CC(C)CCn1c(CN2CCN(C(=O)C3CC3)CC2)nc2c1c(=O)n(C)c(=O)n2C | inactive: 5.22
CC(C)(O)CNc1nc(Nc2ccnc(C(F)(F)F)c2)nc(-c2cccc(C(F)(F)F)n2)n1 [Enasidenib (AG-221)] | inactive: 0.0308
CNCC[C@@H](Oc1ccccc1C)c1ccccc1 [Atomoxetine HCl] | inactive: -0.907
Cc1ccc(C(=O)C(C)CN2CCCCC2)cc1 (centres undefined) [Tolperisone HCl] | inactive: 1.44
CCCCC1C(=O)N(c2ccccc2)N(c2ccccc2)C1=O [Phenylbutazone] | inactive: -1.98
Nc1ncnc2c1nc(Br)n2[C@@H]1O[C@@H]2COP(=O)(O)O[C@H]2[C@H]1O [8-Bromo-cAMP] | inactive: 0.281
COc1cc2ncnc(Nc3ccc(F)c(Cl)c3)c2cc1NC(=O)/C=C/CN1CCCCC1 | inactive: 0.743
Cc1ccc(C(=O)N(CCCN)[C@@H](c2nc3cc(Cl)ccc3c(=O)n2Cc2ccccc2)C(C)C)cc1 | active: -3.03
CC1=CC(=O)c2ccccc2C1=O [Menadione] | inactive: 0.222
CC(=O)/N=c1/sc(S(N)(=O)=O)nn1C [Methazolamide] | inactive: 0.545
CCCc1nc2c(C)cc(-c3nc4ccccc4n3C)cc2n1Cc1ccc(-c2ccccc2C(=O)O)cc1 [Telmisartan] | inactive: -0.276
COCCCOc1cc(C[C@@H](C[C@H](N)[C@@H](O)C[C@H](C(=O)NCC(C)(C)C(N)=O)C(C)C)C(C)C)ccc1OC [Aliskiren Hemifumarate] | inactive: 1.32
CCCCOC(=O)c1ccc(O)cc1 [Butylparaben] | inactive: 0.585
CN1[C@@H]2CC[C@H]1C[C@@H](OC(c1ccccc1)c1ccccc1)C2 [Benztropine mesylate] | inactive: -0.216
CO/N=C(\C(=O)N[C@@H]1C(=O)N2C(C(=O)O)=C(CSC(=O)c3ccco3)CS[C@H]12)c1csc(N)n1 [Ceftiofur HCl] | inactive: 2.97
